The results in this text go back to the RNAGym collection of RNA variant scans (doi:10.7554/elife.90254).

The chains are these.
B1: OR4K15 (parent)
chain: GUUAACGGUCAUAGGCCAUGGAAACUAGGAGCACCAUUUCGCUGCCAGUGAAGAAAUGAACAAAGAAAAUCUGGGCCAGGCAGGCAUCAAAAGAAAUAGUCUUGCGCUCAACCAGAAAGUCUGUAAUCAUUUUAAGGGUA

The source gives no read counts; variants with many changes may rest on few reads.

The variants in the data set derive from B1. Briefly: self-cleavage, relative activity (ratio to wild type); higher = more cleavage; in vitro, sequencing; the parent is a self-cleaving ribozyme.
On to A51G A90G U100G A116U, for which the self-cleavage amounted to 0.4. The figure for A51G A66G U108C is 0.01. The figure for A51G A129G U131C is 1.34; for A51G U87G A114U it is 0.01; for A52G G74A A91G it is 0.18. The value for A52G A54C A64G U131C was 1.6. For A51U A60G A69G, the self-cleavage came out at 1.59.

As to A52U A66U A78G, the self-cleavage was determined as 0.09.

As to A52U A94G G106U U108C, the self-cleavage was 0.01. The figure for A51G A90G A117U is 1.04; for A52G U87C A96G A118G it is 1.57; for A51G A63G A69G it is 1.18. The value for A51G A110U A114G was 0.43; that for A51G U57A A96G A134G was 1.22. In the case of A52G A78U A89G, the self-cleavage was determined as 0.6. For A52G A69G A135G, the self-cleavage is 1.21. The figure for A52G A62G A78G A91G is 0.16. The figure for A52G A92G U100C is 2.27. The figure for A51G U100C A125U is 2.76; for A52G U97C U108C it is 0.02; for A51G A78U U102A C113A it is 0.04. Turning to G50A A78G A129C, the self-cleavage was found to be 0.23.

Turning to A51G A54G U57C A64G, the self-cleavage stood at 0.93. On to A51G C76A U139A, for which the self-cleavage worked out at 0.08. As to A51G A94U A129G, the self-cleavage was determined as 0.76. Turning to A52G U87C U97C A118G, the self-cleavage is 0.9. As to A52G A60G A96U A118G, the self-cleavage was 1.19.

With A51G U102C A117G, the self-cleavage was 2.5. The value for A52G U139A A140G was 1.4.

Turning to A52G A117G U122C, the self-cleavage is 1.32.

As for A51G U72C A118G, the self-cleavage was 0.11. The value for A51G U57C A64G A82G was 0.37. The figure for A52G U72C A96G is 0.18; for A51G A91G A94G it is 1.41; for A52G U70C A89G U103C it is 0.3. The value for A51G U103C U122C A129G A134G was 0.05; that for A51U A117G U127C was 1.73. On to A52G U130C U131C, for which the self-cleavage is 1.47. Regarding A52G A68G G83A G106A, the self-cleavage amounted to 0.02.

In the case of A52G A91G U100C U108C A114U U127C, the self-cleavage was determined as 0.01. The figure for A52G A63G C76U is 0.1; for A51G A94U U102C it is 2.05; for A51U G58U A90G it is 1.21. The figure for A51U A64G A66G A82U A90G is 0.09; for A51G U57C A63G A89U it is 0.56.

For the variant A51U C77U U108C, the self-cleavage stood at 0.02.

With A52G A86G U97C A111G A114G, the self-cleavage came to 0. The figure for A52G A56G A60U U122C A125G U131A is 0.9; for A52G A67G A68G A96G U100C U108A A140G it is 0.01; for A51G A56G A66G A69G A94U it is 0.95. The figure for A51G A67G A69C U122C U124C is 0.97; for A51U A56G U122A U127A A140U it is 0.95. The figure for U49C U87C U103A is 0.57. Regarding A51G A54G A66G U122C A126G, the self-cleavage came out at 1.11.

A51G A54G C88A: the self-cleavage came out at 2.19. The value for A52U A64G A86C A129G U133C was 0.91; that for A52G A66G A69G was 0.53; that for A51G A54G A59G A67G A96G was 1.94.

Turning to A52G A54G A78U A86C A90G, the self-cleavage is 0.21. The value for A51G A89G A118G was 0.86. The figure for A52G A66U U133C is 0.83; for A54G A55G U120C it is 1.38; for A51G U72A U87C A91G it is 0.17. The value for A52G U102A A140U was 0.87. In the case of A52G A63G A82G, the self-cleavage is 0.68. The figure for A51G A117G A135G is 1.78; for A51U A82G U108C A116G it is 0.02; for A52G A69G U124C A126G it is 0.46. The value for A51G G83A U131C was 1.75; that for A51U A66G A67G U87C A90G was 0.56.

Regarding A51G A98U A118G U131C, the self-cleavage was 2.17. For the variant A52G A55U A78G A91G A92G, the self-cleavage was determined as 0.03. The figure for G53U A56G U103C G123A is 0.92; for A52G A82U U131C it is 0.19; for A51G A89G U122G it is 2.19. In the case of A52G U57C A91G, the self-cleavage came to 1.26. Consider A54C A94G A118U, for which the self-cleavage is 0. The value for A51G A55G C105U was 0.08. The figure for A51G A52G C77U U87C is 1.2; for A51U A59G A118G A129G U130C U132A it is 0.53; for G53A A62G A95U A98C U122C G138U it is 1.64.

In the case of A52G A64G G74A U100C, the self-cleavage was found to be 0.28. The value for A52U A64G A68G A82G A126G was 0. The value for A52G A55G A116G was 0.3; that for U49G A94G U100A was 0.36. The value for A52G A68G A86G A116G A129G U139A was 0.47.

Consider U49C U70C A82U, for which the self-cleavage was determined as 0.29. On to A52G A86U A116C U130A, for which the self-cleavage was 0.04. On to A52G A86C A91G U130C A140G, for which the self-cleavage was 0.56. The figure for A51G A78U U102C U132C is 0.96; for A51G A67U U103A U120A A126G it is 0.91. The value for A51G A60G A110G U131C was 0.22; that for A51U A78U A111U was 0; that for A52U A56G A69G U87C was 0.37. The figure for A51U A66G A90G A91U A95G is 2.89; for A52U A116U U131C it is 0.19. As to A52U A82G U120C U127C, the self-cleavage is 0.13. A51G U100C A126G: the self-cleavage was determined as 1.04. The figure for A51G A91U A114G U130C is 0.05.

As to A52U A54G U70C, the self-cleavage turned out to be 0.41. The value for A51G A54G U108C was 0.03; that for A51G A67G U122A was 1.87; that for A51G G74A C81G A82G was 0.28. As to A52G G73A U108C U130A, the self-cleavage amounted to 0.02.

Take A51U A56G A60G U97A U102C A111G A117G: the self-cleavage stood at 0.

For the variant A51G A63G U103C G136U, the self-cleavage was 0.57. On to A52G A68G U108G, for which the self-cleavage was 0.04. The figure for A51U A60G A63G is 1.48.

In the case of A51G A60G A126G, the self-cleavage came to 0.47. The value for A51G A78C A96G U108A was 0.02; that for A51G A59G U100C was 1.57. The figure for A51U A78G A95G is 0.43; for A52U A63G A68G A86G A89G A91G it is 0.46; for A52U A86G A95G C113U it is 0.03.

With A51U A52G U132C, the self-cleavage turned out to be 1.03.

As to A52U A95G G123A, the self-cleavage is 1.88. The value for A52G A55U A94G A95G was 1.75. The figure for A52G U100C U103C is 2.26.

For U49C U124A U131C, the self-cleavage was found to be 0.49.

In the case of A51G A56G A96G, the self-cleavage turned out to be 0.81.

On to A52G A126C U127A, for which the self-cleavage was found to be 0.75. Take A52C U87C A98U A118G: the self-cleavage stood at 1.15. The value for A51G A82U U127C was 0.03. The value for A51G A52G A54U A110G was 0.18; that for A52G A89G A90G A111G was 0.04; that for A52G C61U A67G A90G was 1.01.

For the variant A51G A52G A64G C71U U120C, the self-cleavage turned out to be 0.45. The figure for A52U A62G U122C is 0.8; for A51U G106A A118G it is 0.01. The value for A52G A67G A116G A126G was 0.07; that for A51U A59G A86U A94G was 1.48; that for A54G A55G C101U U103C was 0.05. The figure for A51G A52G A89G U108C is 0.08; for U49C U127C U130C it is 0.56. As for A52G A78G U87A, the self-cleavage was found to be 0.2.

In the case of A51C A52U A54G A98U, the self-cleavage was determined as 2.04. The value for A52G A59G A68G A69G was 0.71; that for A51G A67G U131C was 1.49. The value for A52G A68U A96G was 1.11; that for A52U A64G U132C was 0.34; that for A52G A55G A78U was 0.23. The value for A51U G99C A134G was 0.3; that for A51G A64G A114U was 0. For A52U A69U U130C, the self-cleavage was determined as 0.79. The figure for U49G A116G U133C is 1.23. The figure for A52G A56G A69U A86G is 0.63. The figure for A52G A60G A86U is 0.91; for A51G A66G U100C it is 1.48; for U49C U57C A60G it is 0.89. On to A51G A82G U97C, for which the self-cleavage was found to be 0.55. The figure for A52G A56G U130C is 0.82. On to A51G A56G A68G U108A, for which the self-cleavage is 0.05.

As to G53A U124C A135G, the self-cleavage came out at 1.6. The value for A52G A69G A90G was 0.87; that for A51G A69G U72C A111G A129G was 0.01. The figure for A51G A86G A95G U100C U130C is 2.53; for A52G A78G U130C it is 0.21.

With A52G A56G A94G, the self-cleavage was determined as 0.52.

Consider A52G A59G U87A A90G, for which the self-cleavage was 0.12. The value for A52G G73A C76U U103C A116U was 0.01.

For the variant A52G A62G G74C A95G U139C, the self-cleavage is 0.26. The figure for A51U U72A U124A is 0.14. The figure for A54G A56G A62G G73A U108C is 0.02; for A52G A67U A82G A129G it is 0.54.

As for A52G A55G A62G U72C, the self-cleavage was 0.36. The value for A52U A69G C105G was 0.06. For A52U A90G A126U, the self-cleavage was 0.79.
